Laboratory results from PubChem BioAssay AID624418 (National Center for Advancing Translational Sciences (NCATS), 2012).
Where “and” joins values, the source holds several entries; their conditions need not be identical. Identical values can stand only once. The whole screen tested about 410,000 compounds, of which about 530 (0.13%) were called active. The inconclusive results got no clear call from the source; some entries with a clear call stand among them for comparison. Calls come from the whole dose curve; as a rule, active = well fitted inhibition curve with a large enough effect; inconclusive = small, poorly fitted or top-dose-only effect, or another doubt; inactive = no such curve, though single readings can be large or run the other way. Potencies of inconclusive entries are doubtful fits and often do not repeat.
% is set by controls: 0 for no effect and ±100 for the full control effect; potency is the fitted concentration of half-maximal effect.

Assay: qHTS of GLP-1 Receptor Inverse Agonists: Cytotox Screen
Conditions: HEK293 cAMP-luciferase reporter cells, luminescence, 24 h; activity change, negative = inhibition: at 38.3 µM (top of the series) unless noted
In short: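 Quantitative HTS format, 1536 wells, 200 cells/uL seeded. Compounds: 23 nL, 24 h, 37 °C. Detection: luciferase reagent, luminescence at 12 min RT; decreased signal taken as cytotoxic.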
For `O=C(NCc1ccco1)C1CC(c2ccc(Cl)cc2)=NO1` (centres undefined), the Potency was inconclusive: 31.6 µM [inhibitor, single point].
For `COc1ccc(CNC(=O)CCc2nc3cccnc3n2Cc2ccccc2)cc1`, the “activity change, negative = inhibition” value was inactive: -8.84%.
With `CCC1CCc2sc(C(=O)NCC(c3ccc(OC)cc3)N3CCCC3)cc2C1` (centres undefined) the Potency was inconclusive: 28.2 µM [inhibitor, single point].
For `O=C(N/N=C/c1sc2ccccc2c1O)c1cccc2ccccc12`, the Potency was inconclusive: 2.51 µM [inhibitor, full curve, poor fit].
In the case of `Cc1nn(S(=O)(=O)c2ccccc2)c(C)c1S(=O)(=O)N1CCOCC1`, the Potency is reported as inconclusive: 2 µM [inhibitor, partial curve, poor fit].
With `COc1cc(NC(=O)N2CCC3(CC2)Nc2cc(F)ccc2-n2cccc23)cc(OC)c1OC` the “activity change, negative = inhibition” value was inactive: -21.1%.
With `Cc1cccc2sc(N(CCCN(C)C)C(=O)CN3C(=O)c4ccccc4C3=O)nc12` the Potency was inconclusive: 31.6 µM [inhibitor, single point].
With `CC(C)c1ccccc1NC(=S)NCC1(N(C)C)CCCCC1` the Potency was inconclusive: 10 µM [inhibitor, single point].
In the case of `Cc1ccc(C)c(NC(=S)c2ccccn2)c1`, the Potency is reported as inconclusive: 1.26 µM [inhibitor, full curve, poor fit].
With `O=[N+]([O-])c1cccnc1S(=O)(=O)c1ccccc1` the Potency was inconclusive: 11.2 µM [inhibitor, partial curve, poor fit].
For `CCOC(=O)COc1ccc(Br)cc1/C=C1\SC(N)=NC1=O`, the “activity change, negative = inhibition” value was inactive: -21.6%.
For `Cc1ccc(C)c(NC(=O)c2nn(C)c3c2CS(=O)(=O)c2ccccc2-3)c1`, the “activity change, negative = inhibition” value was inactive: 8.95%.
For `CC1=NN(C(=O)c2csc(C)c2)C(O)(C(F)(F)F)C1` (centres undefined), the Potency was inconclusive: 1 µM [inhibitor, full curve, poor fit].
For `CCCn1c(C)cs/c1=N\C(=S)Nc1ccccc1`, the “activity change, negative = inhibition” value was inactive: 5.73%.
With `O=C(COc1ccccc1F)Nc1nc(-c2ccccn2)cs1` the Potency was inconclusive: 6.31 µM [inhibitor, partial curve].
In the case of `CCOc1ccc(/C=N/NC(=O)c2[nH]ncc2Br)c(O)c1`, the “activity change, negative = inhibition” value is reported as inactive: 9.91%.
In the case of `CSc1ccccc1NC(=O)C1(C)CCN1C(=O)Cc1ccc(-c2ccccc2)cc1` (centres undefined), the “activity change, negative = inhibition” value is reported as inactive: 6.25%.
For `Cc1ccc2nc(-c3cc(-c4ccccc4)no3)cn2c1`, the “activity change, negative = inhibition” value was inactive: 8.73%.
With `COc1ccc(/C=N/NC(=O)c2cccnc2)cc1CSc1nc2ccccc2s1` the Potency was inconclusive: 2.51 µM [inhibitor, full curve].
In the case of `Cc1cc(C(=O)N/N=C/c2cccs2)no1`, the Potency is reported as inconclusive: 22.4 µM [inhibitor, single point].
For `FC(F)(F)c1cc(CCN2CCNC[C@@H]2Cc2ccccc2)cc(C(F)(F)F)c1`, the Potency was inconclusive: 20 µM [inhibitor, single point].
With `Cc1cccnc1NC(=S)NC(=O)c1cncc(Br)c1` the Potency was inconclusive: 28.2 µM [inhibitor, single point].
For `O=C(c1cc(F)ccc1F)N1CCC(N2CCC(C(=O)N3CCCC3)CC2)CC1`, the “activity change, negative = inhibition” value was inactive: -4.65%.
For `CCCCN(CCCC)c1ccc(C(=O)c2ccccc2C(=O)O)c(O)c1`, the Potency was inconclusive: 1.78 µM [inhibitor, partial curve, poor fit].
For `CC1CC(C)CN(C(=O)c2ccc3c(c2)N(Cc2ccccc2)CCS3)C1` (centres undefined), the “activity change, negative = inhibition” value was inactive: -16%.
In the case of `CCCCN=C(Nc1ccc(Cl)cc1)c1cccnc1`, the “activity change, negative = inhibition” value is reported as inactive: -30.4%.
In the case of `CN1CCN(c2nc(Nc3ccc(O)cc3)nc3ccccc23)CC1`, the Potency is reported as inconclusive: 10 µM [inhibitor, partial curve].
In the case of `COc1ccc(-n2c(-c3ccc(C)cc3)cc3c2CC(C)(C)CC3=O)c(OC)c1`, the “activity change, negative = inhibition” value is reported as inactive: -10.2%.
For `CC(=O)ON=C1C=CC(=C(C#N)c2ccccc2)C=C1`, the Potency was inconclusive: 8.91 µM [inhibitor, partial curve, poor fit].
For `Cc1ccc(CNC(=O)CSc2nc3c(sc4ccccc43)c(=O)n2CCCN2CCCC2)cc1`, the Potency was inconclusive: 28.2 µM [inhibitor, single point].
In the case of `CCn1c(C(=O)N2CCC(C(=O)NCCCSC3CCCCC3)CC2)cc2sccc21`, the “activity change, negative = inhibition” value is reported as inactive: -2.55%.
For `COc1ccc(CNc2nc3ccccc3n2CCN2CCCCC2)cc1`, the Potency was inconclusive: 20 µM [inhibitor, single point].
With `COc1ccc(OC)c(-c2nc(C(=O)NC3CCN(Cc4ccccc4)CC3)cc3c2[nH]c2ccccc23)c1` the “activity change, negative = inhibition” value was inactive: -3.47%.
With `COc1ccc(/C=N/NC(=S)Nc2ccccc2)cc1COc1cccc(C)c1C` the “activity change, negative = inhibition” value was inactive: -8.77%.
With `CC(=O)N(C)c1ccc(C=C2C=Cc3ccccc32)cc1` the Potency was inconclusive: 14.1 µM [inhibitor, partial curve, poor fit].
With `CCN1C(c2ccccc2)=C(c2ccccc2)S/C1=C/C=C1\SC(=S)N(C)C1=O` the Potency was inconclusive: 2 µM [inhibitor, partial curve, poor fit].
In the case of `COc1ccc(/C(C)=N/N2C(C)CCCC2C)c(OC)c1` (centres undefined), the activity change, negative = inhibition is reported as inconclusive: -64.8% [inhibitor].
With `O=C(CSc1nnnn1Cc1ccccc1)NCC(=O)c1ccccc1` the Potency was inconclusive: 28.2 µM [inhibitor, single point].
For `Cc1ccc(C)c(OCC(O)CN2C(C)CCCC2C)c1` (centres undefined), the Potency was inconclusive: 11.2 µM [inhibitor, single point].
With `CN(C)c1ccc(S(=O)(=O)N(C)C)cc1NC(=O)Cc1cccc2ccccc12` the Potency was inconclusive: 0.447 µM [inhibitor, full curve, poor fit].
For `CCCC(=O)Nc1ccc(NC(=O)C23CC4CC(CC(C4)C2)C3)cn1`, the Potency was inconclusive: 28.2 µM [inhibitor, single point].
For `CCn1c2ccccc2c2cc(CNCCCN3CCOCC3)ccc21`, the Potency was inconclusive: 17.8 µM [inhibitor, partial curve, poor fit].
With `Cc1cccc(OCC(O)Cn2c(=N)n(CCN3CCCCC3)c3ccccc32)c1` (centres undefined) the Potency was inconclusive: 22.4 µM [inhibitor, single point] and inconclusive: 5.01 µM [inhibitor, full curve].
With `O=c1[nH]c(CCC2CCCC2)nc2ccccc12` the Potency was inconclusive: 12.6 µM [inhibitor, partial curve, poor fit].
